Measured values: publication PMC10917850
These are yes or no findings as the source states them, for the method shown. In cells and extracts the contact can be indirect. Some binding calls cover weakened binding; strength is not graded here. Values belong to the binder of their own block, whether it stands above or below them.

Sequences of proteins named here, by UniProt entry; tags and fusion partners are left off.
UniProt Q9DAJ2: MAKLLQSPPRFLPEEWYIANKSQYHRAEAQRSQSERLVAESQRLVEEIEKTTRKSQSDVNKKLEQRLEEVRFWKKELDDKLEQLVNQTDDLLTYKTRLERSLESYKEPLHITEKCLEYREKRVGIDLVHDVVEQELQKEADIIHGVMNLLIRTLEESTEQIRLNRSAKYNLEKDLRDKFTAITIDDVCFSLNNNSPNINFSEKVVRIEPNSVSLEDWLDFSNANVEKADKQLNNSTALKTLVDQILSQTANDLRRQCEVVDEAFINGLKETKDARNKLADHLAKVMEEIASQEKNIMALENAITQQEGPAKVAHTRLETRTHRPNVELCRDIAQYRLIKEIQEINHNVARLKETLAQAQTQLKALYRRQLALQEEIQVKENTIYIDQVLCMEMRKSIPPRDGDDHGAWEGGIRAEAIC

Tests used:
[1] = biological target: T1, endogenous TEKT3 (mouse (endogenous in mouse testis and sperm)) (UniProt Q6X6Z7); test: co-IP; endogenous proteins in adult mouse testis lysates (Pierce IP Lysis Buffer), WT and Tektip1-/- mice; precipitated with rabbit anti-TEKT1, -TEKT2, -TEKT3 or -TEKT4; rabbit IgG as negative control; Western blot
T1 sequence: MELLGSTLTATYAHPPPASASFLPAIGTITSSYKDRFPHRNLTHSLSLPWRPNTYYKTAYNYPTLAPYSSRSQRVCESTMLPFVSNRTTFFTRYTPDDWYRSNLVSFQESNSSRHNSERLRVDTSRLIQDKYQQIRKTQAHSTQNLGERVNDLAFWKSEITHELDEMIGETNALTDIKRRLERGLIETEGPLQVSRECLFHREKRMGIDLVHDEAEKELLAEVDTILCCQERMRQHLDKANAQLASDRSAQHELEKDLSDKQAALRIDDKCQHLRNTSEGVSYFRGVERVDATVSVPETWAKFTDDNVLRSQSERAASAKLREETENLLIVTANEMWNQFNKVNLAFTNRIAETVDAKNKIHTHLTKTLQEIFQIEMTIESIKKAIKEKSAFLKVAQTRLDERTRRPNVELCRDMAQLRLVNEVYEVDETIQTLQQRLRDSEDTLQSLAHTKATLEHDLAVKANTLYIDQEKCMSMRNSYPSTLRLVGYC

[2] = biological target: T2, endogenous TEKT4 (mouse (endogenous in mouse testis and sperm)) (UniProt Q149S1); test: as above
T2 sequence: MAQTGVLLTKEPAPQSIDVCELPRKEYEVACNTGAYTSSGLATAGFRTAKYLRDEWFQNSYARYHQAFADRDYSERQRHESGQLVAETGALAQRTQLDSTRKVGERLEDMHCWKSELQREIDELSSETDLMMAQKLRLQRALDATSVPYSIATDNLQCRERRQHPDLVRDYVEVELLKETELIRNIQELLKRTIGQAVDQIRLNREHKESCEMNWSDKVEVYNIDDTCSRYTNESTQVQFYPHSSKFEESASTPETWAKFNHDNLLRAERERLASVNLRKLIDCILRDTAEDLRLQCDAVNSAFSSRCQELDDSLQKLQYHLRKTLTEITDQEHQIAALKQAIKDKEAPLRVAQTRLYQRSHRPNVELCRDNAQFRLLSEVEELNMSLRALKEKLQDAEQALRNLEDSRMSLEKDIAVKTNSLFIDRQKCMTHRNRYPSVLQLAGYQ

[3] = biological target: endogenous TEKT1 (mouse (endogenous in mouse testis and sperm)) (UniProt Q9DAJ2); test: proximity ligation; Duolink in situ PLA on mouse sperm slides (WT and Tektip1-/-); mouse TEKTIP1 antiserum with rabbit anti-TEKT1, -TEKT2, -TEKT3 or -TEKT4
[4] = biological target: T3, endogenous TEKT2 (mouse (endogenous in mouse testis and sperm)) (UniProt Q922G7); test: as above
T3 sequence: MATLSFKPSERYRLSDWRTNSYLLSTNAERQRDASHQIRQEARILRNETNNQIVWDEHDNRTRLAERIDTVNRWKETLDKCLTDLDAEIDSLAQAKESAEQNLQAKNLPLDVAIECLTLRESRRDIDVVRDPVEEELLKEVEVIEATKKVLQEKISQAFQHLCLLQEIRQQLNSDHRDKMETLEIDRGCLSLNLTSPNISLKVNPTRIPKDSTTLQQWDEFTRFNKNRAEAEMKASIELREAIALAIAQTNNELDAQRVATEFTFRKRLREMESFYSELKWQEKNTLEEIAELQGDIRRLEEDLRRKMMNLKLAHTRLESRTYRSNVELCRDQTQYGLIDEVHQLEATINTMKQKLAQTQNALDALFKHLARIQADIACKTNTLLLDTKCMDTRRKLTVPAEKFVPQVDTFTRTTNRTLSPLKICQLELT

[5] = biological target: T1, endogenous TEKT3 (mouse (endogenous in mouse testis and sperm)); test: as above
[6] = biological target: T2, endogenous TEKT4 (mouse (endogenous in mouse testis and sperm)); test: as above
[7] = biological target: endogenous TEKT1 (mouse (endogenous in mouse testis and sperm)) (UniProt Q9DAJ2); test: co-IP; endogenous proteins in adult mouse testis lysates (Pierce IP Lysis Buffer), WT and Tektip1-/- mice; precipitated with rabbit anti-TEKT1, -TEKT2, -TEKT3 or -TEKT4; rabbit IgG as negative control; Western blot
[8] = biological target: T3, endogenous TEKT2 (mouse (endogenous in mouse testis and sperm)); test: as above

B3: endogenous TEKT3 (protein, UniProt Q6X6Z7 1-490)
chain: T1 sequence
- binding [2]: binds

B4: endogenous TEKTIP1 (protein, UniProt A6H6Q4 1-206)
chain: MENVRREATRPSVPSGTLELYFPDHLYRNDYVSLEGPRWAPAIKQAVRWKFTPMGRDAAGQVWFTGLTNSEPGDAWYKLPRALDTPYREAHTRWHGCFQSRQRGLPPAYTQHLREMAFWDPAITAQYLNSGPRWGCMQWRDRQIRGKEFVVTRNQFGAKLPWRSDYVPLLSLPQRPRFTAQDFRQRGLQRPCPAIGQPPPAFTPAL
- binding [3]: no binding
- binding [4]: no binding
- binding [5]: binds
- binding [6]: no binding
- binding [7]: no binding
- binding [8]: no binding
- binding [1]: binds
- binding [2]: no binding

Next, values leading:

- binding [1]: binds
- binding [2]: binds
B1: endogenous TEKT2 (protein, UniProt Q922G7 1-430)
chain: T3 sequence

- binding [1]: binds
B2: endogenous TEKT4 (protein, UniProt Q149S1 1-447)
chain: T2 sequence
